Experimental data published in the supplement of paper PMC8728848.
The list shows a part of the results.

Tests used:
Test in all cases: glycan array binding signal (z-score within array); higher = stronger binding
Settings in all cases: glycan notation: IUPAC condensed, linker removed
[1] = biological target: Glc(b1-4)Glc(b1-4)Glc(b1-4)Glc(b1-4)Glc(b1-4)Glc(b1-4)Glc(b1-4)Glc(b1-4)Glc(b1-4)Glc(b1-4)Glc(b1-4)Glc(b1-4)Glc
Summary of the method: (§1)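 The Consortium for Functional Glycomics database supplied 3228 glycan arrays, of which those lacking an available protein sequence were dropped. The binding signal, a within-array Z-score, was averaged across arrays of the same protein sequence and across linkers. Negative scores can be read as non-binding.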

[2] = biological target: Glc(b1-6)Glc
Summary of the method: as §1

[3] = biological target: Glc(b1-6)Glc(b1-6)Glc
Summary of the method: as §1

[4] = biological target: Glc(b1-6)Glc(b1-6)Glc(b1-6)Glc
Summary of the method: as §1

[5] = biological target: Glc(b1-6)Glc(b1-6)Glc(b1-6)Glc(b1-6)Glc
Summary of the method: as §1

[6] = biological target: Glc(b1-6)Glc(b1-6)Glc(b1-6)Glc(b1-6)Glc(b1-6)Glc
Summary of the method: as §1

[7] = biological target: Glc(b1-6)Glc(b1-6)Glc(b1-6)Glc(b1-6)Glc(b1-6)Glc(b1-6)Glc
Summary of the method: as §1

[8] = biological target: Glc(b1-6)Glc(b1-6)Glc(b1-6)Glc(b1-6)Glc(b1-6)Glc(b1-6)Glc(b1-6)Glc
Summary of the method: as §1

[9] = biological target: Glc(b1-6)Glc(b1-6)Glc(b1-6)Glc(b1-6)Glc(b1-6)Glc(b1-6)Glc(b1-6)Glc(b1-6)Glc
Summary of the method: as §1

[10] = biological target: Glc(b1-6)Glc(b1-6)Glc(b1-6)Glc(b1-6)Glc(b1-6)Glc(b1-6)Glc(b1-6)Glc(b1-6)Glc(b1-6)Glc
Summary of the method: as §1

[11] = biological target: Glc(b1-6)Glc(b1-6)Glc(b1-6)Glc(b1-6)Glc(b1-6)Glc(b1-6)Glc(b1-6)Glc(b1-6)Glc(b1-6)Glc(b1-6)Glc
Summary of the method: as §1

[12] = biological target: Glc(b1-6)Glc(b1-6)Glc(b1-6)Glc(b1-6)Glc(b1-6)Glc(b1-6)Glc(b1-6)Glc(b1-6)Glc(b1-6)Glc(b1-6)Glc(b1-6)Glc
Summary of the method: as §1

[13] = biological target: Glc(b1-6)Glc(b1-6)Glc(b1-6)Glc(b1-6)Glc(b1-6)Glc(b1-6)Glc(b1-6)Glc(b1-6)Glc(b1-6)Glc(b1-6)Glc(b1-6)Glc(b1-6)Glc
Summary of the method: as §1

[14] = biological target: GlcA(b1-3)Gal
Summary of the method: as §1

[15] = biological target: GlcA(b1-3)Gal(b1-3)GlcNAc
Summary of the method: as §1

[16] = biological target: GlcA(b1-3)Gal(b1-4)GlcNAc(b1-3)Gal(b1-4)Glc
Summary of the method: as §1

[17] = biological target: GlcA(b1-3)Gal(b1-4)GlcNAc(b1-3)Gal(b1-4)GlcNAc(b1-3)Gal(b1-4)Glc
Summary of the method: as §1

[18] = biological target: GlcA(b1-3)GlcNAc(b1-4)GlcA(b1-3)GlcNAc
Summary of the method: as §1

[19] = biological target: GlcA(b1-3)GlcNAc(b1-4)GlcA(b1-3)GlcNAc(b1-4)GlcA(b1-3)GlcNAc(b1-4)GlcA(b1-3)GlcNAc(b1-4)GlcA(b1-3)GlcNAc(b1-4)GlcA(b1-3)GlcNAc(b1-4)GlcA(b1-3)GlcNAc
Summary of the method: as §1

[20] = biological target: GlcA(b1-4)GlcNAc(a1-4)GlcA(b1-4)2,5-Anhydro-Man
Summary of the method: as §1

[21] = biological target: GlcA(b1-4)GlcNAc(a1-4)GlcA(b1-4)GlcNAc(a1-4)GlcA(b1-4)GlcNAc(a1-4)GlcA(b1-4)2,5-Anhydro-Man
Summary of the method: as §1

[22] = biological target: GlcA3S(b1-3)Gal
Summary of the method: as §1

[23] = biological target: GlcA3S(b1-3)Gal(b1-4)GlcNAc(b1-3)Gal(b1-4)Glc
Summary of the method: as §1

[24] = biological target: GlcA3S(b1-3)Gal(b1-4)GlcNAc(b1-3)Gal(b1-4)GlcNAc(b1-3)Gal(b1-4)Glc
Summary of the method: as §1

[25] = biological target: GlcNAc(a1-4)Gal
Summary of the method: as §1

[26] = biological target: GlcNAc(a1-4)Gal(b1-3)[Fuc(a1-2)]Gal
Summary of the method: as §1

[27] = biological target: GlcNAc(b1-2)Fuc
Summary of the method: as §1

[28] = biological target: GlcNAc(b1-2)Man
Summary of the method: as §1

[29] = biological target: GlcNAc(b1-2)Man(a1-3)[GlcNAc(b1-2)Man(a1-6)]Man
Summary of the method: as §1

[30] = biological target: GlcNAc(b1-2)Man(a1-3)[GlcNAc(b1-2)Man(a1-6)]Man(b1-4)GlcNAc(b1-4)GlcNAc
Summary of the method: as §1

[31] = biological target: GlcNAc(b1-2)Man(a1-3)[GlcNAc(b1-2)Man(a1-6)]Man(b1-4)GlcNAc(b1-4)[Fuc(a1-6)]GlcNAc
Summary of the method: as §1

[32] = biological target: GlcNAc(b1-2)Man(a1-3)[GlcNAc(b1-2)Man(a1-6)][GlcNAc(b1-4)]Man(b1-4)GlcNAc(b1-4)GlcNAc
Summary of the method: as §1

[33] = biological target: GlcNAc(b1-2)Man(a1-3)[Man(a1-3)[Man(a1-6)]Man(a1-6)][GlcNAc(b1-4)]Man(b1-4)GlcNAc(b1-4)GlcNAc
Summary of the method: as §1

[34] = biological target: GlcNAc(b1-2)[GlcNAc(b1-4)]Man(a1-3)[GlcNAc(b1-2)Man(a1-6)][GlcNAc(b1-4)]Man(b1-4)GlcNAc(b1-4)GlcNAc
Summary of the method: as §1

[35] = biological target: GlcNAc(b1-2)[GlcNAc(b1-4)]Man(a1-3)[GlcNAc(b1-2)[GlcNAc(b1-4)][GlcNAc(b1-6)]Man(a1-6)][GlcNAc(b1-4)]Man(b1-4)GlcNAc(b1-4)GlcNAc
Summary of the method: as §1

[36] = biological target: GlcNAc(b1-2)[GlcNAc(b1-4)]Man(a1-3)[GlcNAc(b1-2)[GlcNAc(b1-6)]Man(a1-6)]Man(b1-4)GlcNAc(b1-4)GlcNAc
Summary of the method: as §1

[37] = biological target: GlcNAc(b1-3)Fuc
Summary of the method: as §1

Measured: glycan array binding signal (z-score)

B1: MIC1 (Toxoplasma gondii), O00834 (protein)
chain: VGPEAYGEASHSHSPASGRYIQQMLDQRCQEIAAELCQSGLRKMCVPSSRIVARNAVGITHQNTLQWRCFDTASLLESNQENNGVNCVDDCGHTIPCPGGVHRQNSNHATRHEILSKLVEEGVQRFCSPYQASANKYCNDKFPGTIARRSKGFGNNVEVAWRCYEKASLLYSVYAECASNCGTTWYCPGGRRGTSTELDKRHYTEEEGIRQAIGSVDSPCSEVEVCLPKDENPPLCLDESGQISRT
-0.3: [17] | [33] | [35]
-0.311: [30]
-0.296: [16] | [18]
-0.306: [32]
-0.282: [24]
-0.265: [25]
-0.299: [15] | [26]
-0.309: [14] | [22] | [23]
-0.301: [34]
-0.312: [19] | [31] | [36]
-0.287: all other assays above
